Results taken from paper PMC4336329 (PLoS ONE, 2015).
Hit rate of the full screen: of about 310,000 compounds, about 14,000 (4.5%) showed an effect of 50% or more. The effect is printed as a negative number. Some of the results follow.

target: human ether-à-go-go-related gene (hERG) potassium channel (human, UniProt Q12809); assay: primary screen, population patch clamp on CHO cells stably expressing hERG
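Note: peak tail current of the secondary pulse compared with the same well before compound.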

Sequence of human ether-à-go-go-related gene (hERG) potassium channel (Q12809 whole entry, looked up): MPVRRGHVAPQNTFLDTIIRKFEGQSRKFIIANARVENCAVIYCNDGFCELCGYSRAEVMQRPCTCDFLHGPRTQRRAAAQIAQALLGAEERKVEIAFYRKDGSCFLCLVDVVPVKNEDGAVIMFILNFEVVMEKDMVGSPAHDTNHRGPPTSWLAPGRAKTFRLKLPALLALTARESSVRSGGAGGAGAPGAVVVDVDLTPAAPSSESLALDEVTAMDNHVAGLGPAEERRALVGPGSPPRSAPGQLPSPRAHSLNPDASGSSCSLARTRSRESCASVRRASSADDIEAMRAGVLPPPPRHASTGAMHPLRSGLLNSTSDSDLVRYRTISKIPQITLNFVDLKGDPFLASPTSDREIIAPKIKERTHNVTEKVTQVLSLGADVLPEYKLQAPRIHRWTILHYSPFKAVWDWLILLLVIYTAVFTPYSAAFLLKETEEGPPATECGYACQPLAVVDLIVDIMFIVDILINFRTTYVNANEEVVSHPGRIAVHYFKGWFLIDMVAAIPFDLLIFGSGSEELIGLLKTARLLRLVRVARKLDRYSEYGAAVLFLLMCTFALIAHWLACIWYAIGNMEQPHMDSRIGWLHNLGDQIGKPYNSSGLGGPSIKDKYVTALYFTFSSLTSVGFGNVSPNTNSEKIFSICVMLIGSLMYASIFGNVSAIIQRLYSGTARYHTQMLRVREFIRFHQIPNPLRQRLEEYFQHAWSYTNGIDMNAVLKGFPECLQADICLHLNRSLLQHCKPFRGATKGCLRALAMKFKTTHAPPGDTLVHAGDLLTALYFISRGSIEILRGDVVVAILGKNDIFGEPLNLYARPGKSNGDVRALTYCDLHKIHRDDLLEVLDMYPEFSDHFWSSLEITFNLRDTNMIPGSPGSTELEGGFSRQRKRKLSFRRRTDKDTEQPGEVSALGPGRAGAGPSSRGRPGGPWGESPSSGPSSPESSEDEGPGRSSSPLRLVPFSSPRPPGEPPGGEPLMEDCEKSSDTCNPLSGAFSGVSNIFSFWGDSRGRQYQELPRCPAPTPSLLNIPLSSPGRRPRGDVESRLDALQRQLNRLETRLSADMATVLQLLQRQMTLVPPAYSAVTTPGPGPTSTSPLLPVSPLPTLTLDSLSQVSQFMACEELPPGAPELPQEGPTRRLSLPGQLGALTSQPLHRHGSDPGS

For `Cc1ccc(S(=O)(=O)/N=C(/c2ccccc2)N(C)c2ccc(O)cc2)cc1`, which “hERG current change (%, negative = inhibition) at 10uM” value is on record?
The value was -6.14%.

With `COc1ccc(N(CC(=O)N2CCc3ccccc3C2)S(C)(=O)=O)cc1` as the compound, how does the “hERG current change (%, negative = inhibition) at 10uM” value read?
Its value is -19.6%.

With `Cn1c(SCC(=O)O)nc2ccccc2c1=O` as the compound, how does the “hERG current change (%, negative = inhibition) at 10uM” value read?
Its value is -0.0128%.

For `C[C@H](NC(=O)[C@H](Cc1ccccc1)NC(=O)c1cc2cc(Cl)ccc2n1C)C(=O)O`, which “hERG current change (%, negative = inhibition) at 10uM” value is on record?
Its value is 21.3%.

For `Cc1occc1C(=O)N/N=C/C(Br)=C/c1ccccc1`, which “hERG current change (%, negative = inhibition) at 10uM” value is on record?
The value was 9.07%.

`O=C(CSc1nnc(C2CC2)n1-c1ccccc1)Nc1ccc(N2CCOCC2)cc1` was tested. Which “hERG current change (%, negative = inhibition) at 10uM” value did it give?
The value was 7.36%.

For `COc1ccc(N2CCN(c3nc4ccccn4c(=O)c3/C=C(\C#N)S(=O)(=O)c3ccccc3)CC2)cc1`, which “hERG current change (%, negative = inhibition) at 10uM” value is on record?
Its value is -2.49%.

With `Cl.Fc1ccc(CNCc2ccc3c(c2)OCO3)cc1` as the compound, how does the “hERG current change (%, negative = inhibition) at 10uM” value read?
Its value is 2.11%.

How did the “hERG current change (%, negative = inhibition) at 10uM” value turn out when `Cc1ccccc1N(C(=O)c1csnn1)C(C(=O)NC(C)(C)C)c1ccncc1` (centres unmarked) was run?
Its value is 10.8%.

How did the “hERG current change (%, negative = inhibition) at 10uM” value turn out when `O=C(Nc1cc(Cl)c(Cl)cc1Cl)c1cccnc1` was run?
The value was -6.92%.

For `CC(=O)NC(c1ccco1)c1cc(F)c2cccnc2c1O` (centres unmarked), which “hERG current change (%, negative = inhibition) at 10uM” value is on record?
Its value is -0.00822%.

`CCOc1ccc(NC(=S)N2CCc3cc(OC)c(OC)cc3C2COc2ccc3c(C)cc(=O)oc3c2)cc1` (centres unmarked) was tested. Which “hERG current change (%, negative = inhibition) at 10uM” value did it give?
The value was -5.76%.

Which “hERG current change (%, negative = inhibition) at 10uM” value does the source give for `CC(NS(=O)(=O)/C=C/c1ccccc1)C(=O)NCCc1ccc(S(N)(=O)=O)cc1` (centres unmarked) here?
Its value is 14.9%.

How did the “hERG current change (%, negative = inhibition) at 10uM” value turn out when `Cn1c(=O)cc(-c2ccccc2)c2ccccc21` was run?
The value was -20.2%.

With `S=C1NC(c2cccs2)=CC(c2ccc(Br)cc2)N1` (centres unmarked) as the compound, how does the “hERG current change (%, negative = inhibition) at 10uM” value read?
Its value is 2.84%.

Which “hERG current change (%, negative = inhibition) at 10uM” value does the source give for `CNC(=O)OCc1cccc(COC(=O)NC)n1.Cl` here?
Its value is 27.2%.

With `Cc1c(-c2cccc(Cl)c2)nc2ccccc2c1C(=O)OCC(=O)Nc1ccc2c(c1)OCO2` as the compound, how does the “hERG current change (%, negative = inhibition) at 10uM” value read?
The value was 4.27%.

For `CCNc1cc(N2CCN(C)CC2)ccc1[N+](=O)[O-]`, which “hERG current change (%, negative = inhibition) at 10uM” value is on record?
Its value is -7.35%.

How did the “hERG current change (%, negative = inhibition) at 10uM” value turn out when `Cc1ccc(S(=O)(=O)Cc2ccc(C(=O)N3CCN(c4cc(C)ccc4C)CC3)o2)cc1` was run?
The value was -18.7%.

`CCOc1ccc(Cc2nn[nH]n2)cc1` was tested. Which “hERG current change (%, negative = inhibition) at 10uM” value did it give?
The value was 9.6%.

How did the “hERG current change (%, negative = inhibition) at 10uM” value turn out when `CCn1c(=O)c(=O)[nH]c2c(=O)oc3ccc(S(=O)(=O)Nc4ccc(OC)cc4)cc3c21` was run?
Its value is 6.59%.

For `CNCC(=O)c1ccccc1.Cl`, which “hERG current change (%, negative = inhibition) at 10uM” value is on record?
Its value is 0.121%.

For `O=C(NC1CC2CCCC(C1)N2C(=O)Nc1ccc(Cl)c(C(F)(F)F)c1)C1CC1` (centres unmarked), which “hERG current change (%, negative = inhibition) at 10uM” value is on record?
Its value is 12.9%.

Which “hERG current change (%, negative = inhibition) at 10uM” value does the source give for `O=c1nc2ccccc2c2n1CC(CN1CCN(C(c3ccccc3)c3ccccc3)CC1)N2` (centres unmarked) here?
The value was -81.4%.

With `N#CC(c1ccccc1)c1ccc2c(C(F)(F)F)cc(C(F)(F)F)nc2n1` (centres unmarked) as the compound, how does the “hERG current change (%, negative = inhibition) at 10uM” value read?
Its value is 16.2%.

`CC(C)Cc1nc(Cl)c(C#N)c2c1CCC2` was tested. Which “hERG current change (%, negative = inhibition) at 10uM” value did it give?
The value was 3.14%.

Which “hERG current change (%, negative = inhibition) at 10uM” value does the source give for `Cc1ccc(OCC(=O)Nc2ccc3c(c2)C(=O)NC3=O)cc1` here?
The value was 7.54%.

How did the “hERG current change (%, negative = inhibition) at 10uM” value turn out when `CCOc1cc(/C=N/Nc2ccc(C(=O)O)cc2)ccc1OC(=O)c1ccccc1C` was run?
Its value is 17.3%.

With `Cc1cc(C(=O)NNC(=O)c2ccc(Cl)cc2)no1` as the compound, how does the “hERG current change (%, negative = inhibition) at 10uM” value read?
The value was 2.2%.

With `CCc1ccccc1NC(=O)c1cc(-c2cccc(O)c2)on1` as the compound, how does the “hERG current change (%, negative = inhibition) at 10uM” value read?
Its value is 12.7%.

`COCCn1c(SCc2ccc(C)cc2)nc2c1c(=O)[nH]c(=O)n2C` was tested. Which “hERG current change (%, negative = inhibition) at 10uM” value did it give?
Its value is 1.22%.

How did the “hERG current change (%, negative = inhibition) at 10uM” value turn out when `O=C1c2ccccc2C(Nc2ccc(F)cc2F)N1CCN1CCOCC1` (centres unmarked) was run?
The value was -0.0362%.

For `Cc1cccc2sc(N(CCCN(C)C)C(=O)c3ccc(S(=O)(=O)N4CCc5ccccc5C4)cc3)nc12.Cl`, which “hERG current change (%, negative = inhibition) at 10uM” value is on record?
Its value is 13.9%.

For `CCC(Oc1cc(Cl)ccc1Cl)C(=O)N1CCC2(CC1)OCCO2` (centres unmarked), which “hERG current change (%, negative = inhibition) at 10uM” value is on record?
Its value is 4.7%.

For `CCN1C(=O)[C@H]2[C@@H](c3ccc(C)cc3)N3C(=O)N(c4cccc(F)c4)C(=O)[C@@]3(C)[C@H]2C1=O`, which “hERG current change (%, negative = inhibition) at 10uM” value is on record?
Its value is 3.13%.

With `Cc1c(O)c2cccnc2[nH]c1=O` as the compound, how does the “hERG current change (%, negative = inhibition) at 10uM” value read?
The value was 16%.

For `Cc1cccc(CN2CCC(C(N)=O)CC2)c1`, which “hERG current change (%, negative = inhibition) at 10uM” value is on record?
The value was 9.85%.

Which “hERG current change (%, negative = inhibition) at 10uM” value does the source give for `Cc1ccc(N=Cc2sccc2C)cc1C` here?
Its value is 9.89%.

Which “hERG current change (%, negative = inhibition) at 10uM” value does the source give for `Cc1csc(NC(=O)c2ccc(N3CCCC3=O)cc2)n1` here?
The value was 17.9%.

Which “hERG current change (%, negative = inhibition) at 10uM” value does the source give for `O=C(NC1CC1)c1ccc(-c2nc3ccccc3s2)s1` here?
Its value is 10.7%.

`COc1ccc(CN2CCN(S(=O)(=O)c3ccc(C)cc3)CC2)cc1OC` was tested. Which “hERG current change (%, negative = inhibition) at 10uM” value did it give?
Its value is -0.531%.

Which “hERG current change (%, negative = inhibition) at 10uM” value does the source give for `COc1ccc(NC(=S)Nc2ccc(C)c(S(=O)(=O)N3CCCCC3)c2)cc1` here?
The value was -18.2%.

With `CCCCCOC(=O)C1=C(C)Nc2ncnn2C1c1cccs1` (centres unmarked) as the compound, how does the “hERG current change (%, negative = inhibition) at 10uM” value read?
The value was 3.88%.

Which “hERG current change (%, negative = inhibition) at 10uM” value does the source give for `O=[N+]([O-])c1cccnc1Oc1ccc(F)cc1` here?
The value was 1.14%.

Which “hERG current change (%, negative = inhibition) at 10uM” value does the source give for `O=C(Nc1ccc(S(=O)(=O)N2CCCC2)cc1)c1cccnc1Cl` here?
Its value is -19.3%.

For `O=C(O)c1ccc(NS(=O)(=O)c2ccc3c(c2)OCCCO3)cc1`, which “hERG current change (%, negative = inhibition) at 10uM” value is on record?
The value was 4.23%.

For `CCCC(=O)N1CCN(c2ccc(NC(=O)c3cc4ccccc4o3)cc2)CC1`, which “hERG current change (%, negative = inhibition) at 10uM” value is on record?
Its value is -13.4%.

Which “hERG current change (%, negative = inhibition) at 10uM” value does the source give for `CSc1ccc(CN(C)C(=O)CCNS(=O)(=O)c2ccc(C)c(C)c2)cc1` here?
The value was -21.3%.

With `Cc1cc(Cl)c(S(=O)(=O)N2CCN(c3ccc(F)cc3)CC2)cc1OCC(N)=O` as the compound, how does the “hERG current change (%, negative = inhibition) at 10uM” value read?
The value was 9.9%.

`Cc1ccc2cc3cc(C(=O)N4CCCCCC4)oc3nc2c1` was tested. Which “hERG current change (%, negative = inhibition) at 10uM” value did it give?
Its value is -5.96%.

Which “hERG current change (%, negative = inhibition) at 10uM” value does the source give for `CC(NC(=O)C(=S)N1CCN(C)CC1)c1ccccc1` (centres unmarked) here?
The value was 10.9%.

How did the “hERG current change (%, negative = inhibition) at 10uM” value turn out when `O=C(CN1C(=O)NC2(CCCCCC2)C1=O)c1ccc(OC(F)F)cc1OC(F)F` was run?
The value was -35%.

How did the “hERG current change (%, negative = inhibition) at 10uM” value turn out when `COc1cc(CNC2CCCCC2)c(Br)cc1OC1CCCC1` was run?
Its value is -10.5%.

For `Cc1ccnc(SCC(=O)c2cccs2)n1`, which “hERG current change (%, negative = inhibition) at 10uM” value is on record?
The value was 19.5%.

`Cc1ccc(S(=O)(=O)c2nc(S(C)(=O)=O)sc2N(C)C)cc1` was tested. Which “hERG current change (%, negative = inhibition) at 10uM” value did it give?
Its value is 7.31%.

For `COc1ccc(C(c2nnnn2Cc2cccs2)N2CCC(C(N)=O)CC2)c(OC)c1` (centres unmarked), which “hERG current change (%, negative = inhibition) at 10uM” value is on record?
Its value is -8.49%.
